Results: PubChem BioAssay AID1745853 (National Center for Advancing Translational Sciences (NCATS), 2022)
Several values for one entry are separate records, joined by “and”; a condition that tells them apart may be missing. Identical values can stand only once. This is one part of the list. These are further read-outs of the screen, such as a control signal, another cell line or another target. No call is given for them.

Legend:
Assay in all cases: Primary Screen for Target Class Profiling of Small Molecule Inhibitors of Methyltransferases
[1] = target: Glycine N-methyltransferase (Homo sapiens) (UniProt Q14749); settings: purified enzyme, MTase-Glo SAH luminescence; measured here: GNMT inhibition; at 40 µM; stronger effect = lower value
Source text: (§1) PI: Matthew D. Hall Ph.D. and Quinlin M. Hanson Ph.D.
(§2) National Center for Advancing Translational Sciences (NCATS)
(§3) National Institute of Health (NIH), Rockville, MD
(§4) Target class profiling (TCP) is a chemical biology approach amenable to investigating understudied biological targets. TCP is achieved by developing a generalizable assay platform and applying it to screen a curated set of compound libraries against representative members of a target class. Small molecule methyltransferases (SMMTase) are a subclass of methyltransferase that act on metabolites to modulate signaling pathways, metabolize xenobiotics, or balance the available methyl pool. We screened four curated libraries totaling 27,574 unique compounds against the SMMTases nicotinamide N-methyltransferase (NNMT), phenylethanolamine N-methyltransferase (PNMT), histamine N-methyltransferase (HNMT), glycine N-methyltransferase (GNMT), catechol O-methyltransferase (COMT), and guanidinoacetate N-methyltransferase (GAMT). The data generated by this TCP can be leveraged for informed tool molecule development. For example, in the associated publication we identified a chemotype of HNMT-selective inhibitors. Additionally, we identified a putative SMMTase-selective inhibitor with potential as a tool molecule for studying broader methyltransferase biology.
(§5) High-through put screening assays were developed at the National Center for Advancing Translational Science (NCATS) for the enzymes NNMT, PNMT, HNMT, GNMT, COMT, and GAMT. Enzymatic activity was measured as a function of SAM cofactor conversion using the MTase Glo kit (Promega) for all enzymes. All assays were performed in 1536-well format with substrates and SAM concentrations at KM values. Enzyme concentration and assay timing were optimized for 10-20% SAM conversion. Initial screening of 27,574 compounds was done as single-point assays using the highest compound concentration (40 uM). […] These compounds were replated in 11-point dose response and assayed against NNMT, PNMT, HNMT, GNMT, COMT, GAMT, and a counter-assay. The IC50 and efficacy (maximal response) values were determined for each dose-response curve. These values are also accounted for in the area under the curve (AUC) values.
(§6) PROTOCOL TABLE (as described by Inglese J, Shamu CE and Guy RK. 2007)
(§7) SEQUENCE No. (e.g., 1, 2, 3, etc.); […] (e.g., Cells, Incubation, Reagent, etc.); VALUE; DESCRIPTION.
(§8) 1; Reagent; 2 uL; SMMTase Enzyme (2x) in reaction buffer, columns 1- 48.
(§9) 2; Reagent; 1 uL; SAM (4x) in reaction buffer, columns 1-48.
(§10) 3; Controls; 23 nL; DMSO in column 4; sinefungin in DMSO (0 uM - 40 uM) in 7-point 1:2 dilution series (n = 2) in column 2.
(§11) 4; Compounds; 23 nL; Columns 5-48.
(§12) 5; Reagent; 1 uL; Substrate (4x) in reaction buffer, columns 2-48.
(§13) 6; Time; 20-30 min; Incubation.
(§14) 7; Reagent; 1 uL; MTase-Glo reagent (5X), columns 1-48.
(§15) 8; Time; 30 min; Incubation.
(§16) 9; Reagent; 5 uL; MTase-Glo Detection reagent, columns 1-48.
(§17) 10; Time; 30 min; Incubation, luminescence evolution.
(§18) 11; Detection; Luminescence; ViewLux uHTS Microplate Imager (PerkinElmer).
(§19) NOTES (numbers refer to Sequence numbers above)
(§20) 1, 2, 5. White Medium Binding Greiner 1536-well plates (Cat #789175-F, Greiner Bio-One, Monroe, NC); Reaction buffer: 50 mM Tris, pH 8.0, 3 mM MgCl2, 1 mM EDTA, 50 mM NaCl, 1 mM DTT, and 0.1 mg/mL BSA. Evaporation was prevented by covering assay plates with metal lids containing holes to allow gas diffusion.
(§21) 1. Six SMMTase were profiled: HNMT, GNMT, PNMT, COMT, NNMT, GAMT
(§22) 5. The corresponding substrate was used for each enzyme: HNMT - 5.3 uM Histamine; GNMT - >500 uM Glycine; PNMT - 16.2 uM Norephinephrine; COMT - 13.7 uM Norephinephrine; NNMT - 3.8 uM Nicotinamide; GAMT - 2.5 uM Guanidinoacetate.6, 8, 10. Room temperature
(§23) 6. Final reaction conditions: 10 nM COMT, 5 uM SAM, 15 uM norepinephrine, 50 mM Tris, pH 8.0, 3 mM MgCl2, 1 mM EDTA, 50 mM NaCl, 1 mM DTT, and 0.1 mg/mL BSA; refer to tables 2 and S1 for specific timing.
8. […]

[2] = target: Guanidinoacetate N-methyltransferase (Homo sapiens) (UniProt Q14353); settings: purified enzyme, MTase-Glo SAH luminescence; measured here: GAMT inhibition; at 40 µM; stronger effect = lower value
Source text: as §1, §2, §3, §4, §5, §6, §7, §8, §9, §10, §11, §12, §13, §14, §15, §16, §17, §18, §19, §20, §21, §22, §23
8. […]

[3] = target: Histamine N-methyltransferase (Homo sapiens) (UniProt P50135); settings: purified enzyme, MTase-Glo SAH luminescence; measured here: HNMT inhibition; at 40 µM; stronger effect = lower value
Source text: as §1, §2, §3, §4, §5, §6, §7, §8, §9, §10, §11, §12, §13, §14, §15, §16, §17, §18, §19, §20, §21, §22, §23
8. […]

[4] = target: Nicotinamide N-methyltransferase (Homo sapiens) (UniProt P40261); settings: purified enzyme, MTase-Glo SAH luminescence; measured here: NNMT inhibition; at 40 µM; stronger effect = lower value
Source text: as §1, §2, §3, §4, §5, §6, §7, §8, §9, §10, §11, §12, §13, §14, §15, §16, §17, §18, §19, §20, §21, §22, §23
8. […]

[5] = target: Phenylethanolamine N-methyltransferase (Homo sapiens) (UniProt P11086); settings: purified enzyme, MTase-Glo SAH luminescence; measured here: PNMT inhibition; at 40 µM; stronger effect = lower value
Source text: as §1, §2, §3, §4, §5, §6, §7, §8, §9, §10, §11, §12, §13, §14, §15, §16, §17, §18, §19, §20, §21, §22, §23
8. […]
% is set by controls: 0 for no effect and ±100 for the full control effect.

Compound | activity change, negative = inhibition [1] | activity change, negative = inhibition [2] [%] | activity change, negative = inhibition [3] | activity change, negative = inhibition [4] [%] | activity change, negative = inhibition [5] [%]
COc1ccc(OC)c(NC(=O)N2Cc3ccccc3-n3cccc3C2c2cccc(C)c2)c1 (stereo not given) | 1.42% | -1.2 | -3.04% | -3.26 | -0.447
CN1CCN([C@H]2[C@@H]3OC[C@@H](O3)[C@@H](NCc3ccccn3)[C@@H]2O)CC1 | -0.403% | -1.32 | 1.51% | 1.32 | -1.24
O=S(=O)(c1ccccc1F)N1CCOc2c(N3CCNCC3)cccc21 | -3.33% | 3.85 | 6.25% | -23.2 | 2.92
CCCn1c(=O)c2[nH]c(C3CCCC3)nc2n(CCCOC(=O)c2ccc(S(=O)(=O)F)cc2)c1=O | 5.96% | 16.3 | 9.54% | -8.06 | 7.24
COc1ccc(C2c3cccn3-c3ccccc3CN2C(=O)Nc2ccccc2F)cc1OC (stereo not given) | 11.2% | 0.08 | 6.12% | -0.66 | 6.38
CC(=O)O[C@@H]1[C@@H](O)[C@H]2O[C@@H]3C=C(C)[C@@H](O)C[C@]3(CO)[C@]1(C)[C@]21CO1 | 0% | 6.48 | 9.34% | -5.12 | 7.66
COc1ccc(C)cc1NC(=O)N1Cc2ccccc2-n2cccc2C1c1ccc(C)cc1 (stereo not given) | 8.46% | 0 | 6.06% | 9.14 | 6.23
CCCN(CCC)CCc1ccc(OC)c(OCCc2ccccc2)c1 | 4.16% | 12.2 | -20.3% | -7.07 | 0.844
CCN1CCN(C(=O)Cc2ccc(Nc3ncc(F)c(Nc4ccc(C(=O)Nc5ccccc5Cl)cc4)n3)cc2)CC1 | -15.9% | 5.88 | -19.5% | -19.1 | -8.71
CC(O)(CS(=O)(=O)c1ccc(F)cc1)C(=O)Nc1ccc(C#N)c(C(F)(F)F)c1 (stereo not given) | -4.11% and -3.07% | 5.59 | 0.029% and 6.99% | -8.21 | 7.37
COC(=O)C12C(=O)C(C)(O)C(=O)C1(C)C(C)=CC1C34CCC(OC3=O)C(C)(CO)C4CCC12C (stereo not given) | -1.85% | 5.9 | 3.14% | -8.97 | 1.93
Cc1ccc(NC(=O)N2Cc3ccccc3-n3cccc3C2c2ccc(F)cc2)cc1 (stereo not given) | 4.93% | 0.767 | 0.486% | 2.59 | 5.93
NC(=O)c1ccc(N2CC3CCC(C2)N3CC(F)(F)F)nn1 | -6.57% | -8.49 | -20.4% | -59.1 | -12.6
Cn1cccc1C(=O)C(=O)N1C[C@H](c2cc(F)cc(F)c2)[C@@H]2[C@H]1C1CCN2CC1 | -8.01% | -6.02 | -7.36% | -15.1 | 0.781
COc1ccc(NC(=O)N2Cc3ccccc3-n3cccc3C2C)cc1 (stereo not given) | 4.54% | 2.72 | -3.13% | -7.32 | 1.52
COc1ccc(CC2C(=O)NC(C)C(=O)N(C)C3Cc4ccc(cc4)Oc4cc(ccc4OC4OC(CO)C(O)C(O)C4O)CC(C(=O)NC(C)C(=O)NC(CCC(=O)O)C(=O)N2C)N(C)C3=O)cc1 (stereo not given) | -4.26% | -8.45 | 1.51% | -18 | -15.7
Cc1ccc(NC(=O)N2Cc3ccccc3-n3cccc3C2c2cccc(Cl)c2)cc1 (stereo not given) | 3.67% | 7.83 | -1.29% | 1.07 | 3.34
Cc1ncsc1CCCl | -8.09% | 1.87 | -1.77% | -8.65 | -2.83
CC(=O)C1CCC2C3CCC4C[C@@H](O)CCC4(C)C3CCC12C (stereo not given in full) | -7.23% | 12 | 2.52% | -23.5 | -5.26
O=C(Nc1cccc(Cl)c1)N1Cc2ccccc2-n2cccc2C1c1ccccc1 (stereo not given) | 5.81% | 0 | -0.517% | 1.87 | 4.6
CC1c2cccn2-c2ccccc2CN1C(=O)Nc1ccc(Br)cc1 (stereo not given) | 13.1% | 3.1 | 7.13% | 4.62 | 8.72
CCc1ccc(C2c3cccn3-c3ccccc3CN2C(=O)Nc2ccc(F)c(Cl)c2)cc1 (stereo not given) | 14.7% | 3.68 | 8.27% | 8.29 | 7.95
COc1ccc(C(=O)N2C[C@@H]3C[C@H](C2)c2ccc(NC(=O)CN(C)C)c(=O)n2C3)cc1 | -1.43% | -0.194 | -0.154% | 1.29 | 1.73
CN(C)c1ccc(C2c3cccn3-c3ccccc3CN2C(=O)Nc2ccc(Cl)cc2)cc1 (stereo not given) | 10.8% | 0 | 3.85% | 7.86 | 4.99
CCCN1CCO[C@H]2c3cc(O)ccc3OC[C@@H]21 | 0.857% | 5.3 | 10.6% | -8.47 | 6.08
CC(C)Oc1cccnc1N(C)C1CCN(Cc2ccccc2)CC1 | -12.3% | 3.87 | -13.2% | -5.43 | 8.04
Cc1cccc(C2c3cccn3-c3ccccc3CN2C(=O)Nc2ccc(Br)cc2)c1 (stereo not given) | 4% | 4.86 | 3.3% | 5.02 | -0.841
O=C(Nc1ccccc1)N1Cc2ccccc2-n2cccc2C1c1ccc(F)cc1 (stereo not given) | -2.79% | 0 | -0.09% | -3 | 4.48
C=C1C(=O)O[C@@H]2[C@H]3C(=C)[C@@H](O)C[C@H]3C(=C)C[C@@H](O)[C@@H]12 | -3.73% | 1.16 | 11.3% | -5.72 | 2.86
